PubChem BioAssay AID686978 (National Center for Advancing Translational Sciences (NCATS), 2013)
The whole screen tested about 420,000 compounds, of which about 64,000 (15%) were called active. Inconclusive means that the source gave no clear call. Such entries were picked first, then a sample of the others. Calls follow the shape of the dose curve; as a rule, active = well fitted inhibition curve with a large enough effect; inconclusive = small, poorly fitted or top-dose-only effect; inactive = flat fitted curve, though single readings scatter. Potencies of inconclusive entries are left out as doubtful fits.

Assay: qHTS for Inhibitors of human tyrosyl-DNA phosphodiesterase 1 (TDP1): qHTS in cells in absence of CPT; also: nearly all actives have a fitted effect of over 55% in size
Settings: DT40 Tdp1-/- hTDP1 cells, no CPT, ATP luminescence, 48 h; activity change, negative = growth inhibition: at 46.2 µM (top of the series) unless noted
How it was run: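 Luminescent ATP content (CellTiter-Glo) served as the growth readout. Knockout chicken DT40 cells expressing human TDP1 were exposed to compounds without camptothecin for a minimum 48 hr at 37 °C.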
% is scaled to controls: 0 for no effect and ±100 for the full control effect; potency is read from the fitted curve at half-maximal effect; tags tell the direction and shape of the fitted curve.

SMILES | activity change, negative = growth inhibition | Potency
CCc1ccc(NC(=O)N2CCc3ccccc3C2)cc1 | inactive: -15% | 
O=C(N[C@H]1/C=C\[C@@H](O)CCCC1)OCc1ccccc1 | inactive: -2.5% | 
CN(C)c1ccc(CC2C(=O)Nc3ccccc32)cc1 (stereo not given) |  | inconclusive [inhibitor, single point]
O=C1CCc2cc(S(=O)(=O)NCCc3ccc(Cl)cc3)cc3c2N1CC3 | inactive: -3.77% | 
C=CCOC(=O)C1=C(C)NC(SCC(N)=O)=C(C#N)C1c1cccs1 (stereo not given) |  | inconclusive [inhibitor, partial curve]
Cc1cc(C)n2nc(C(=O)OCC(=O)N(CCC#N)c3ccc(F)cc3)nc2n1 | inactive: 2.76% | 
COc1c(/C=N/Nc2ccc([N+](=O)[O-])cc2[N+](=O)[O-])c(C)nn1-c1ccccc1 |  | inconclusive [inhibitor, partial curve]
C/C(=C\c1ccc(Br)cc1)C(=O)c1c(C)cc(C)[nH]c1=O |  | inconclusive [inhibitor, single point]
COc1ccc(CN(C(=O)CCC(=O)N2CCCCC2)c2nccs2)cc1OC |  | inconclusive [inhibitor, partial curve, poor fit]
CC(C)Cn1c(N)c(C(=O)COC(=O)c2ccc(Br)cc2)c(=O)n(C)c1=O |  | active: 23.1 µM
CSc1cccc(NC(=O)N2CCN(c3cc(-c4noc(C)n4)ccc3C)CC2)c1 |  | inconclusive [inhibitor, single point]
COc1ccc(C2=NN(C(=O)c3cccs3)C(c3ccc(OC)cc3)C2)cc1 (stereo not given) |  | active: 18.4 µM
COc1ccc(C(C)=O)cc1OCc1ccccc1 |  | inconclusive [inhibitor, full curve, poor fit]
O=C(CN1C(=O)C(=O)c2ccccc21)OCN1C(=O)c2ccccc2C1=O | inactive: -7.79% | 
CCn1c(=O)c(CCC(=O)NCC2CCCO2)c(C)c2c(C)nn(-c3ccc(C)cc3)c21 (stereo not given) |  | inconclusive [inhibitor, single point]
O=C(N/N=C/c1ccc(-c2ccccc2[N+](=O)[O-])o1)c1cncc(Br)c1 |  | inconclusive [inhibitor, single point]
O=S(=O)(c1cc(F)ccc1F)N1CCN(c2ncnc3ccccc23)CC1 |  | active: 2.06 µM
O=[N+]([O-])c1cc(C(F)(F)F)ccc1NCCNC(=S)Nc1ccc(Cl)cc1 |  | active: 18.4 µM
CCOC(=O)c1ccc(NC(=O)Nc2nncs2)cc1 |  | active: 0.0065 µM
COc1ccc2cc(CNCc3ccccc3Cl)c(N3CCCC(CO)C3)nc2c1 (stereo not given) |  | inconclusive [inhibitor, single point]
